Results taken from the supplement of paper PMC3334620.
In all, about 33,000 sequences were measured (“E-score (-0.5 to 0.5)”: median about -0.012, highest 2% from about 0.29 on). This is one part of the list.

Target: T1, Ybr033w (UniProt P38073)
T1 sequence: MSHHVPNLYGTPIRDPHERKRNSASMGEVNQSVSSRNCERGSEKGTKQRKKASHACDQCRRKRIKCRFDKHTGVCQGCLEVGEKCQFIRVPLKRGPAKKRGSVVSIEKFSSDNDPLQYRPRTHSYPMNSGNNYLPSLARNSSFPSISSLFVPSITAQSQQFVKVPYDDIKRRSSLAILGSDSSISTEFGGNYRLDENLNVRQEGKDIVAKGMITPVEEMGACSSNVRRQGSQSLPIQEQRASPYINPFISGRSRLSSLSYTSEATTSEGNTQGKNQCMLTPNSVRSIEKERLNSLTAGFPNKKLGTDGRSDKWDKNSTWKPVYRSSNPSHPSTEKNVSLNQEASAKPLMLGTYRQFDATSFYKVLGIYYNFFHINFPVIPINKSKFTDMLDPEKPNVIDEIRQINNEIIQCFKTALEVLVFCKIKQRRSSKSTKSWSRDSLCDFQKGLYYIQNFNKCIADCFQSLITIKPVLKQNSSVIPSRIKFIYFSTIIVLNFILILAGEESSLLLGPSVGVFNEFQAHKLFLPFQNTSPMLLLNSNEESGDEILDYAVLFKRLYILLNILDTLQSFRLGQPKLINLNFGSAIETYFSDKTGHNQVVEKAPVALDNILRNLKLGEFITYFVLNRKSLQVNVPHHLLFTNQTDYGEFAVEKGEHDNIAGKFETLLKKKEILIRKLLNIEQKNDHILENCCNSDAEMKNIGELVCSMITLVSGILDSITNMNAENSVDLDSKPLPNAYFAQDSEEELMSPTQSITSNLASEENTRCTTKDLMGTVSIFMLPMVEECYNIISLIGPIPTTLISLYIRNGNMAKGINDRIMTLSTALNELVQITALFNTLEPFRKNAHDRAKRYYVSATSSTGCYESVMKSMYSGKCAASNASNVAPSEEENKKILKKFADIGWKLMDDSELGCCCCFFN
Test: PBM E-score (8-mer binding enrichment) (E-score (-0.5 to 0.5)); higher = stronger / more preferred TF binding; most listed sequences are background and not binding sites
Conditions: protein concentration: 200 nM; construct: GST-full length
Procedure: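 Universal 'all 10-mer' protein binding microarrays (Agilent AMADID 015681) probed with GST-tagged S. cerevisiae TFs (full-length or DBD) made by in vitro transcription/translation (PURExpress), about 100-200 nM. Bound TF was detected with fluorescent anti-GST. Each ungapped 8-mer (which stands for itself and its reverse complement) is scored by the PBM enrichment score (E-score), a modified Wilcoxon-Mann-Whitney statistic from -0.5 to +0.5, computed with the Universal PBM Analysis Suite. Scale: above 0.35 generally sequence-specific binding.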

Row | Sequence | PBM E-score
1 | CAACGCAC | -0.227
2 | ATAATAGC | 0.00134
3 | CTAGTCTC | -0.178
4 | GGAGGATA | -0.0323
5 | ATCTCGAA | -0.0302
6 | ATTTCTGG | 0.176
7 | CTGTGAGC | -0.0445
8 | TGAGGGAA | -0.048
9 | ATTTAAGG | 0.0525
10 | AATCATGG | 0.119
11 | AGCAGGCC | -0.0674
12 | AATAGTCA | 0.0746
13 | CTACGCTA | -0.105
14 | AACGTCTC | -0.0416
15 | GCTCCAAA | -0.128
16 | AACGAGCA | -0.136
17 | ATCCTATG | -0.0468
18 | ATCTCCGG | 0.121
19 | ATTAATAA | 0.302
20 | ATACTTCA | 0.143
21 | CAATAAGA | 0.145
22 | ATCCCCGA | -0.11

Row | Sequence | PBM E-score
23 | ACGGCTCT | -0.0486
24 | ATCTTAAA | 0.0947
25 | CCTTGCTA | 0.00278
26 | GAGCCCCC | -0.415
27 | CAAGCGGA | -0.131
28 | CTGCGATC | -0.152
29 | AGCTGAGC | -0.164
30 | AAAGGCAT | 0.115
31 | AATCCTTG | 0.138
32 | GGAGGCGA | -0.159
33 | CCTCATTA | 0.205
34 | ATTTGCTG | 0.212
35 | TCGCCAAA | -0.0465
36 | AGTTCTCG | 0.123
37 | AATATCAC | 0.239
38 | CAGCGACC | -0.228
39 | AAGTCAAC | 0.18
40 | CAGGTGGA | -0.147
41 | TGTAACAA | 0.0774
42 | ATTCTCAG | 0.0338
43 | AACGCCCC | -0.161
44 | ATCAGAAA | 0.044

Row | Sequence | PBM E-score
45 | ACTTTCAT | 0.0376
46 | AATAGGGC | -0.106
47 | CTTAACTA | 0.0617
48 | ATCTTAAG | 0.0705
49 | CTAGTGAG | -0.0318
50 | CGTCTGAC | -0.0411
51 | GCTCCACA | -0.25
52 | GAAAAAGC | 0.239
53 | CAACTGAC | -0.115
54 | ACGAAAAG | 0.164
55 | ATCACAAC | 0.118
56 | GTACATAC | 0.0751
57 | AGCGCCGA | -0.0522
58 | AGAGCCTA | -0.0498
59 | TCTGCAAA | 0.0324
60 | AACACGTT | -0.0899
61 | GCAATAGA | 0.00182
62 | ATGCTATA | 0.0582
63 | AAGAAATA | 0.27
64 | CTCCTTTA | -0.0477
65 | AAAGTAAA | 0.166
66 | ATTGCATC | 0.183

Row | Sequence | PBM E-score
67 | AGAAAGTG | -0.0806
68 | ATGAGTAA | 0.167
69 | CTTTTCCC | 0.0333
70 | ATACAATG | 0.222
71 | GGGGCACC | -0.396
72 | AACATGGC | -0.0522
73 | AATGGGAA | -0.0743
74 | AAGAAGAT | 0.205
75 | CGGTGAAA | 0.0862
76 | CTCCCCGA | -0.221
77 | AAACTTCA | 0.293
78 | ACATAAGT | 0.172
79 | GATTAAGC | 0.104
80 | CAAATCTG | 0.053
81 | AATTTAGC | 0.239
82 | ACGGCGAT | 0.0661
83 | AAAGTTCT | 0.0699
84 | ACGCGACG | -0.109
85 | CACTACAA | 0.214
86 | AAAGACCG | -0.148
